These results are taken from paper PMC11320581 (ACS Infectious Diseases, 2024).

In test [1] the target is T1, N. gonorrhoeae topoisomerase IV (Neisseria gonorrhoeae, UniProt P48374+Q5F754). It counts as biochemical.
Test [2] deals with T1, N. gonorrhoeae topoisomerase IV. Kind of test: Topoisomerase IV-catalyzed DNA decatenation. The following applies: 20 min, read-out: DNA decatenation activity of topoisomerase IV remaining.

Where only a bound is given, the exact number is not on record here.

As usually defined, the remaining activity is the signal under treatment as a percentage of the control signal.

Regarding `CC1CN2c3c(cc4c(OCC5CCC(=O)N5)noc4c3F)CC3(C(=O)NC(=O)NC3=O)C2C(C)O1` (centres unmarked) [H3D-005722], in test [1], the “double-stranded and total DNA strand breaks, gyrase compared with topoisomerase IV” value is “comparable levels”.

In the case of `C[C@@H]1CN2c3c(cc4c(N5C(=O)OC[C@@H]5C)noc4c3F)CC3(C(=O)NC(=O)NC3=O)[C@H]2[C@H](C)O1` [zoliflodacin, Zoliflodacin], the remaining activity at 200 µM in test [2] was ≥ 50%.
